Laboratory results as given in the supplement of paper PMC8728848.
Some of the results follow.

Tests used:
Assay in all cases: glycan array binding signal (z-score within array); higher = stronger binding
Conditions in all cases: glycan notation: IUPAC condensed, linker removed
Gal(b1-4)Glc = molecular target: Gal(b1-4)Glc
Summary of the method: (§1)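 Glycan array data came from 3228 arrays in the Consortium for Functional Glycomics database, and only arrays with an available protein sequence were kept. Glycan names were put into IUPAC-condensed notation, and columns mapping to the same glycan were averaged. The binding signal is a within-array Z-score, averaged across arrays of one protein sequence run at different concentrations or buffers and across linkers. A negative Z-score can be read as non-binding.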

Gal(b1-4)Glc6S = molecular target: Gal(b1-4)Glc6S
Summary of the method: as §1

Gal(b1-4)GlcNAc = molecular target: Gal(b1-4)GlcNAc
Summary of the method: as §1

[1] = molecular target: Gal(b1-4)GlcNAc(a1-6)Gal(b1-4)GlcNAc
Summary of the method: as §1

Gal(b1-4)GlcNAc(b1-2)Man = molecular target: Gal(b1-4)GlcNAc(b1-2)Man
Summary of the method: as §1

[2] = molecular target: Gal(b1-4)GlcNAc(b1-2)Man(a1-3)Man(b1-4)GlcNAc(b1-4)GlcNAc
Summary of the method: as §1

[3] = molecular target: Gal(b1-4)GlcNAc(b1-2)Man(a1-3)[Gal(b1-4)GlcNAc(b1-2)Man(a1-6)]Man(b1-4)GlcNAc(b1-4)GlcNAc
Summary of the method: as §1

[4] = molecular target: Gal(b1-4)GlcNAc(b1-2)Man(a1-3)[Gal(b1-4)GlcNAc(b1-2)Man(a1-6)]Man(b1-4)GlcNAc(b1-4)[Fuc(a1-6)]GlcNAc
Summary of the method: as §1

[5] = molecular target: Gal(b1-4)GlcNAc(b1-2)Man(a1-3)[Gal(b1-4)GlcNAc(b1-2)Man(a1-6)][Gal(b1-4)GlcNAc(b1-4)]Man(b1-4)GlcNAc(b1-4)[Fuc(a1-6)]GlcNAc
Summary of the method: as §1

[6] = molecular target: Gal(b1-4)GlcNAc(b1-2)Man(a1-3)[Gal(b1-4)GlcNAc(b1-2)Man(a1-6)][GlcNAc(b1-4)]Man(b1-4)GlcNAc(b1-4)[Fuc(a1-6)]GlcNAc
Summary of the method: as §1

[7] = molecular target: Gal(b1-4)GlcNAc(b1-2)Man(a1-3)[GlcNAc(b1-2)Man(a1-6)]Man(b1-4)GlcNAc(b1-4)GlcNAc
Summary of the method: as §1

[8] = molecular target: Gal(b1-4)GlcNAc(b1-2)Man(a1-3)[GlcNAc(b1-4)][Gal(b1-4)GlcNAc(b1-2)Man(a1-6)]Man(b1-4)GlcNAc(b1-4)GlcNAc
Summary of the method: as §1

[9] = molecular target: Gal(b1-4)GlcNAc(b1-2)Man(a1-3)[Man(a1-6)]Man(b1-4)GlcNAc(b1-4)GlcNAc
Summary of the method: as §1

[10] = molecular target: Gal(b1-4)GlcNAc(b1-2)Man(a1-6)Man(b1-4)GlcNAc(b1-4)GlcNAc
Summary of the method: as §1

[11] = molecular target: Gal(b1-4)GlcNAc(b1-2)Man(a1-6)[GlcNAc(b1-2)Man(a1-3)]Man(b1-4)GlcNAc(b1-4)GlcNAc
Summary of the method: as §1

[12] = molecular target: Gal(b1-4)GlcNAc(b1-2)Man(a1-6)[Man(a1-3)]Man(b1-4)GlcNAc(b1-4)GlcNAc
Summary of the method: as §1

[13] = molecular target: Gal(b1-4)GlcNAc(b1-2)[Gal(b1-4)GlcNAc(b1-4)]Man(a1-3)[Gal(b1-4)GlcNAc(b1-2)Man(a1-6)]Man(b1-4)GlcNAc(b1-4)GlcNAc
Summary of the method: as §1

[14] = molecular target: Gal(b1-4)GlcNAc(b1-2)[Gal(b1-4)GlcNAc(b1-4)]Man(a1-3)[Gal(b1-4)GlcNAc(b1-2)[Gal(b1-4)GlcNAc(b1-6)]Man(a1-6)]Man(b1-4)GlcNAc(b1-4)GlcNAc
Summary of the method: as §1

B1: PX9961C-bth-497-22-497 (Bacteroides thetaiotaomicron) (protein)
chain: DWLDLNTTSSVETGQAIVTLDDAQIALNGIYRLASGHSYYGDNYWYYGDCRAADVQARITKGDGKRVSPYYEYNVLASDNLNIVLPWNTVYKVIRQTNNLIQKIESGSIQSSDTKELNRIKSEALVMRGLSLFNLTRLFGMPYTNDKGASLGVPIETSPSDPTHKPSRSTVAQCYEQVVSDMSNALSGLRQETSNGYINYWAAQALLSRVYLNMGEYQKAYDAATDVIKNNGGRYQLYSYEEYPNVWGQDFQSESLFELYITLSEPSGGTGGEGAPMVYANEATVDWNNLILSEDFLNLLNEDPKDVRHCLTKESVIENNTGLPAAAMHEKVYLAKFPGKTGDDPKTNNICIIRLSEVYLNAAEAGLKKGTDIEEAQGYLNDIISRRTTDTSQQVSTETFTLDRILKERRKELVGEGEVFYDYLRNGLAIERKGSWHLETLKASNAQKIEATDLRIALPIPQSEIDANPNIQQNPR
glycan array binding signal (z-score) (Gal(b1-4)Glc): -0.471
glycan array binding signal (z-score) (Gal(b1-4)Glc6S): -0.374
glycan array binding signal (z-score) (Gal(b1-4)GlcNAc): -0.356
glycan array binding signal (z-score) [1]: -0.367
glycan array binding signal (z-score) (Gal(b1-4)GlcNAc(b1-2)Man): 0.061
glycan array binding signal (z-score) [2]: 0.975
glycan array binding signal (z-score) [3]: 0.431
glycan array binding signal (z-score) [4]: 0.793
glycan array binding signal (z-score) [5]: 0.185
glycan array binding signal (z-score) [6]: 0.149
glycan array binding signal (z-score) [7]: 0.447
glycan array binding signal (z-score) [8]: -0.422
glycan array binding signal (z-score) [9]: 0.112
glycan array binding signal (z-score) [10]: -0.302
glycan array binding signal (z-score) [11]: -0.308
glycan array binding signal (z-score) [12]: -0.361
glycan array binding signal (z-score) [13]: -0.114
glycan array binding signal (z-score) [14]: -0.304
